Test results taken from the supplement of paper PMC3334620.
Whole data set: some 33,000 sequences, median “E-score (-0.5 to 0.5)” near -0.017, cut for the highest 2% near 0.3. The list shows a part of the results.

Biological target: T1, Sut1 (UniProt P53032)
T1 sequence: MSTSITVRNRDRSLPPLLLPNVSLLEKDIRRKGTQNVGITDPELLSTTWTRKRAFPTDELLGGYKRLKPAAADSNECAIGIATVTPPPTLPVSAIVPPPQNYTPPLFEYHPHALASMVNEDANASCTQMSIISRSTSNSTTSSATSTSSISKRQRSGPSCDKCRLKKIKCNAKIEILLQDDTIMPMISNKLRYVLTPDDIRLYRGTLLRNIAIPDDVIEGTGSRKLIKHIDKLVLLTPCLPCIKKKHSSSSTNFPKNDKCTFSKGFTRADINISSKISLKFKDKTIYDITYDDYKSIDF
Experiment: PBM E-score (8-mer binding enrichment) (E-score (-0.5 to 0.5)); higher = stronger / more preferred TF binding; most listed sequences are background and not binding sites
Settings: protein concentration: 200 nM; construct: GST-full length
Method in brief: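 PURExpress in vitro transcription/translation supplied GST-tagged yeast transcription factors, either full-length or DNA-binding domain. Applied at about 100-200 nM to universal all-10-mer Agilent arrays double-stranded by primer extension, the bound protein was detected with fluorescent anti-GST. E-scores, modified Wilcoxon-Mann-Whitney statistics, were given by the Universal PBM Analysis Suite to ungapped eight-base words pooled with their reverse complements after masliner normalisation.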

Row | Sequence | PBM E-score
1 | ACCCTTTA | 0.198
2 | CAATATCG | 0.0807
3 | ACGGCAAA | -0.0357
4 | AGCCCCCC | -0.359
5 | TGCCAACA | -0.0698
6 | AGTTAGTG | 0.202
7 | AAATAGAT | 0.21
8 | TATCGGGA | 0.0279
9 | ACTTTTGG | 0.0796
10 | AAACCGTG | -0.0909
11 | GCCGCATA | -0.111
12 | CCGTTACA | 0.16
13 | CCTGCAGC | -0.133
14 | TATCCATA | 0.165
15 | AGGCCCAA | -0.0529
16 | CGCCACAG | -0.213
17 | TTATAGAA | 0.16
18 | AGCAGTCA | -0.134
19 | ATTGAAAG | 0.231
20 | CCGAAATA | 0.289
21 | CCTGTTTC | -0.0625
22 | ACATCCCT | -0.0504
23 | ATGTCCTA | -0.145
24 | TGTAGGAA | -0.072
25 | AAGAGCTG | -0.215

Row | Sequence | PBM E-score
26 | AGGTTGAA | 0.167
27 | CACGTCCC | -0.226
28 | AAATACCG | 0.184
29 | ATATTTCA | 0.17
30 | AACAAGGG | -0.138
31 | AAACAAAC | 0.165
32 | CGCATCAA | 0.168
33 | AAAATGGT | 0.282
34 | CTCCCAAA | 0.105
35 | AAGATCTG | 0.0338
36 | TACGACGA | 0.0388
37 | CAAATCAG | 0.0435
38 | GGGGCCCA | -0.158
39 | CATTCCGA | 0.25
40 | CTGATAGC | -0.289
41 | GGCTCATA | -0.0389
42 | AGCACCTC | -0.0401
43 | CCTAAATA | 0.0596
44 | ACCCCAAA | -0.053
45 | ACTCAACG | -0.0818
46 | ATAGGTGG | -0.138
47 | ACTTAAGG | 0.155
48 | ACGGCGCT | -0.182
49 | ATTGACCC | 0.0582
50 | GTACGCCA | -0.381

Row | Sequence | PBM E-score
51 | ACTAAACG | -0.0129
52 | CTGACTAC | -0.145
53 | AACGACGA | 0.141
54 | GAGAGCTA | -0.0936
55 | ACCGTACA | 0.0484
56 | GAAGATGA | 0.0362
57 | CCCATGAG | -0.273
58 | GGAAAGCC | 0.0896
59 | ATGAATGA | 0.197
60 | TGGTGCAA | -0.105
61 | ATTGGCCA | -0.0712
62 | GTCCCTTA | -0.0537
63 | AACGCGGC | -0.15
64 | CCGGACAA | 0.283
65 | GACCTCCA | -0.021
66 | TCCGGCGA | 0.301
67 | GGAGTATA | 0.311
68 | GTGATCGA | 0.105
69 | CGGTCTTC | 0.136
70 | GGGAGGAA | -0.0642
71 | TAGCGGCA | -0.108
72 | AAACCAGC | 0.0797
73 | GAAGTGGA | 0.0334
74 | CGATTCCG | 0.314
75 | AGCTTACA | 0.0901

Row | Sequence | PBM E-score
76 | CTCGTAGA | -0.199
77 | AAACTATC | 0.123
78 | GGCCAATA | 0.0398
79 | ACATCATC | 0.0302
80 | CTGGGTGC | -0.225
81 | ACCGGCGA | -0.0414
82 | ACTGTGAT | 0.0339
83 | CATATAGG | -0.0616
84 | TACTGACA | 0.176
85 | ATAAGCAC | 0.0456
86 | CTCTATAA | 0.186
87 | GGGGGCGA | -0.187
88 | AGTCTCAC | -0.0455
89 | CATGAACG | -0.213
90 | CTGGCACC | -0.227
91 | AATCGATT | 0.114
92 | CAGCCACA | -0.146
93 | CCCAAGCC | -0.219
94 | CTGCGTAC | -0.161
95 | TAGGTCCA | 0.00796
96 | CCAGATGA | -0.216
97 | AATACGTA | 0.148
98 | TATCTTAA | 0.119
99 | ATTATCAC | 0.201
100 | ACACGTGC | -0.205

Row | Sequence | PBM E-score
101 | CAACGGTA | -0.145
102 | ATAAGGAC | -0.0865
103 | ACGGGAGC | -0.21
104 | CACAGCAG | -0.16
105 | TATCGTAA | 0.171
106 | ACCGCGTC | -0.14
107 | GGTGATAC | -0.161
108 | AAAAGCAG | -0.0522
109 | ATTAGCAA | 0.138
110 | ACCGCCGC | -0.0257
111 | AAAGGTTA | 0.00288
112 | GCGCCCAA | -0.147
113 | TCTATAGA | 0.0647
114 | AAAGGAAC | 0.0768
115 | GAGGCCCC | -0.337
116 | AGGCCCAT | -0.271
117 | CTAACCTC | 0.039
118 | CCGAGAGC | -0.0413
119 | CACCGCAC | -0.252
120 | GCATGGCA | -0.148
121 | ACGGGTAA | -0.106
122 | CAGCTTGG | 0.0282
123 | GCGAAACC | -0.0165
124 | GAAACGGC | -0.00384
125 | CAACTTTA | 0.16

Row | Sequence | PBM E-score
126 | GCCCGAGA | 0.0215
127 | CCAAGCAC | -0.11
128 | TATCAAAA | 0.197
129 | ATATACAA | 0.256
130 | GATCACAA | 0.101
131 | CTCGTCAC | -0.0641
132 | ACTACATC | 0.0926
133 | GCTAAGCA | -0.106
134 | CACATTGA | 0.0527
135 | AACGTAGT | -0.152
136 | ATATGGTA | 0.116
137 | CGTTGTAA | -0.0499
138 | ACCCTGGC | -0.194
139 | GTAAGATA | 0.264
140 | AAATAATG | 0.297
141 | CCGAATAC | 0.189
142 | GGACGAAC | 0.00805
143 | AGAGGTTC | -0.0571
144 | CTCACGAG | -0.0283
145 | CTCAATTC | 0.106
146 | ATCATGCA | -0.0516
147 | GCCGGTCA | -0.112
148 | GGTGTTAA | -0.0501
149 | CGAGTTAC | 0.0146
150 | ACCATTGC | -0.0529

Row | Sequence | PBM E-score
151 | GCGAAACA | 0.0351
152 | GTGGGGAA | 0.0142
153 | GGCCTGTA | -0.21
154 | CCTCTTGA | -0.0682
155 | CTGCGCAC | -0.0515
156 | AAGGCCAT | 0.00678
157 | GTGTGTAA | 0.0906
158 | AGAACCAC | 0.0611
159 | ACGATCGT | -0.165
160 | GACAACCC | -0.051
161 | GACTTTCA | 0.174
162 | ATACACGG | 0.115
163 | AGCGGATG | -0.0827
164 | CTGTCCGC | -0.0203
165 | TGATAGCA | 0.102
166 | AAATGATA | 0.337
167 | ATGTAAAT | 0.217
168 | GCACAAGC | -0.083
169 | AGGGGCCC | -0.217
170 | CTAATTAG | 0.096
171 | CCGAAGGA | -0.0752
172 | AGAGCTAC | -0.188
